Test results reported in PubChem BioAssay AID1347073 (National Center for Advancing Translational Sciences (NCATS), 2019).
Hit rate of the full screen: of about 45,000 compounds, about 200 (0.44%) were called active. Another 7% or so got no clear call; they are omitted. Calls come from the whole dose curve; as a rule, active = well fitted activation curve with a large enough effect; inconclusive = small, poorly fitted or top-dose-only effect; inactive = no such curve, though single readings can be large or run the other way. The list shows a part of the results.

Assay: qHTS of TDP-43 Inhibitors: NCGC Sytravon Library Screen; note: 0% is about no effect; nearly all actives have a fitted effect of over 55% in size
Conditions: yeast TDP-43 toxicity rescue, BacTiter-Glo growth, 24 h; series mostly up to 46.1 µM; growth rescue (activation): at the top concentration
Summary of the method: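 TDP-43-expressing yeast, pregrown in raffinose, seeded at OD600 0.02 in galactose medium with compound for 24 hr at 30 deg C. Growth read by BacTiter-Glo luminescence, so rescue of toxicity appears as activation.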

Row | SMILES | growth rescue (activation)
1 | C=CCn1c(SCC(=O)Nc2ccc(O)cc2)nc2sc(C)c(C)c2c1=O | inactive: 14.9%
2 | O=C(O)c1cccc2c(-c3ccccc3)c(-c3ccccc3)[nH]c12 | inactive: 13.7%
3 | O=C(CSCc1ccc(Cl)cc1)Nc1ccc(S(=O)(=O)N2CCOCC2)cc1 | inactive: 19.5%
4 | CC1(C(=O)NS(=O)(=O)c2ccccc2)CCN1C(=O)Cc1cccs1 (centres undefined) | inactive: -4.11%
5 | CCCCCOc1ccccc1CN1C(=O)C(=O)c2cc(C)ccc21 | inactive: -7.23%
6 | COc1cccc(CNC(=O)COC(=O)c2nn(C)c(=O)c3ccccc23)c1 | inactive: 1.39%
7 | COc1ccccc1NC(=O)COC(=O)C1=NN(c2ccccc2)C(=O)CC1 | inactive: -3.49%
8 | CC1CCN(C(=O)c2ccc3c(c2)NC(=O)CN3)CC1 | inactive: 6.03%
9 | O=C(O)CCc1ccc(-c2ccc(F)cc2)n1CC(=O)O | inactive: 6.81%
10 | COc1ccc(Cn2c(-c3ccc(OC)cc3)n[nH]c2=S)cc1 | inactive: 14.8%
11 | O=[N+]([O-])c1ccc2nc(CCCO)[nH]c2c1 | inactive: -14.3%
12 | CCOC(=O)N(C)c1c(CC)nc2c(OCc3ccc(Cl)cc3Cl)cccn12 | inactive: -3.17%
13 | CN(c1ccc(C(=O)NCCSC(C)(C)C)cc1)S(=O)(=O)c1ccccc1 | inactive: 16.4%
14 | O=C(/C=C/c1cccnc1)c1ccc(F)c(F)c1 | inactive: -10.1%
15 | COCCSc1ccccc1C(=O)Nc1ccc(Cl)cc1 | inactive: -4.77%
16 | COc1ccc(Nc2nc3ccc(C)cn3c(=O)c2/C=N/O)cc1 | inactive: -1.24%
17 | O=C(Cc1coc2ccc3ccccc3c12)Nc1nnc(C2CC2)s1 | inactive: 1.03%
18 | CCN(CC)c1ccc(C=C2C(=O)OC(C)(C(C)(C)C)OC2=O)cc1 (centres undefined) | inactive: 2.53%
19 | Cc1c(Cl)cccc1NC(=S)/C(=C(\[O-])c1ccc(Cl)s1)[n+]1ccccc1 | inactive: 23.9%
20 | O=S(=O)(/N=C(/Nc1cccc2ccccc12)c1ccccc1)c1ccccc1 | inactive: 24.1%
21 | CC(C)CNC(=O)C1(C)CCCN1C(=O)c1cccnc1Oc1ccccc1 (centres undefined) | inactive: -4.08%
22 | CCCCCSc1nnc(-c2ccccc2NC(C)=O)c(=O)[nH]1 | inactive: -19.3%

Row | SMILES | growth rescue (activation)
23 | COc1ccc(C(=O)NC(=S)Nc2cccnc2)cc1Cl | inactive: -29.6%
24 | Cc1cc(C)cc(NC(=O)C(NCC2CCCO2)c2ccccc2)c1 (centres undefined) | inactive: 10.7%
25 | Cc1ccc(C(OC(=O)c2ccco2)C(=O)NC2CCCC2)cc1 (centres undefined) | inactive: 23.8%
26 | CCOC(=O)C1C(c2cccc([N+](=O)[O-])c2)C2C(=O)NN=C2CC1(C)O (centres undefined) | inactive: 11.3%
27 | O=C(O)c1nn(CC(=O)N(C2CCCCC2)C2CCCCC2)c(=O)c2ccccc12 | inactive: 4.5%
28 | Cc1cc(C)nc(SCC(=O)N/N=C/c2ccc3c(c2)OCO3)n1 | inactive: 23.4%
29 | Cc1c(Cl)cnc(NC(=O)COC(=O)c2cccc(S(=O)(=O)N3CCc4ccccc4C3)c2)c1Cl | inactive: 10.2%
30 | O=C(C1CC(=O)N(c2ccc(Cl)cc2)C1)N1CCCCCC1 (centres undefined) | inactive: -8.06%
31 | O=C(CS(=O)(=O)c1ccccc1)Nc1ccccn1 | inactive: 3.91%
32 | Cc1cc(C)c(S(=O)(=O)N(C)CC(=O)NCCCn2ccnc2)c(C)c1 | inactive: -4.42%
33 | Cc1ccc(-c2csc(NC(=O)COc3ccc(N(C)S(=O)(=O)c4ccc(C)cc4)cc3)n2)cc1 | inactive: -16.7%
34 | C=CCc1cccc2cc(C(=O)Nc3ccccc3C(=O)O)c(=O)oc12 | inactive: -23.4%
35 | COc1ccc(COC(=O)CCc2cc(OC)c(OC)c(OC)c2)cc1F | inactive: 5.09%
36 | O=C(CCc1nnc(Cc2ccc(-c3ccccc3)cc2)o1)NCC1CC1 | inactive: 10.7%
37 | Cc1ccc(NC(=O)CN(C)C(=O)c2ccccn2)cc1 | inactive: 25.2%
38 | O=C(Nc1ccccc1OC(F)(F)F)c1ccc([N+](=O)[O-])cc1 | inactive: 1.03%
39 | O=C(CC12CC3CC(CC(Br)(C3)C1)C2)Nc1nncs1 | inactive: 4.55%
40 | Cc1ccc(NC(=O)CN(C)CCOc2ccccc2)c([N+](=O)[O-])c1 | inactive: -7.64%
41 | CC(/C=N/n1c(-c2ccco2)n[nH]c1=S)=C\c1ccco1 | inactive: 5.84%
42 | Cc1ccc(CNC(=O)C2CCN(C(=O)Nc3ccccc3)CC2)cc1 | inactive: 2%
43 | c1ccc2c(SCc3cn4ccccc4n3)nncc2c1 | inactive: -2.16%
44 | CCc1c(C(C)=O)oc2ccc3c(C)cc(=O)oc3c12 | inactive: -21.8%

Row | SMILES | growth rescue (activation)
45 | Nc1nc(SCC(=O)c2ccc(Br)s2)n[nH]1 | inactive: 7.87%
46 | CCOc1ccccc1NC(=O)CCNC(=O)Cn1ccc2ccccc2c1=O | inactive: 2.69%
47 | Cc1oc2c(C)c(O)ccc2c(=O)c1N1C(=O)c2ccccc2C1=O | inactive: 19.7%
48 | Cc1nnc(SC(C)C#N)n1-c1ccccc1 (centres undefined) | inactive: 1.24%
49 | C/C(=N\NC(=O)Cc1c(Cl)cccc1Cl)c1cccnc1 | inactive: 3.31%
50 | CCOC(=O)c1cc(-c2ccccc2)sc1NC(=O)CCN1C(=O)c2ccccc2C1=O | inactive: 8.82%
51 | O=C(CSc1nnc2ccccn12)NNC(=O)c1cccc(Cl)c1 | inactive: 5.94%
52 | O=C(O)c1cccnc1SC1CC(=O)N(c2ccc(OC(F)F)cc2)C1=O (centres undefined) | inactive: -6%
53 | CN(C)C(=O)c1ccc(Nc2nc(-c3cccs3)nc3ccccc23)cc1 | inactive: 6.57%
54 | Fc1cc(F)cc(NC(=S)Nc2ccccc2N2CCOCC2)c1 | inactive: 5.21%
55 | Cc1ccccc1OCCOCCN1CCCCCC1 | inactive: 0.348%
56 | CC(Oc1ccc(C#N)cc1)C(=O)Nc1ccc(-n2cnnn2)cc1 (centres undefined) | inactive: -12%
57 | Cc1ccc(S(=O)(=O)Nc2ccc(NC(=O)/C=C/C(=O)O)cc2)cc1 | inactive: 3.84%
58 | O=C(CNCc1ccco1)Nc1ccc(Oc2ccccc2)cc1 | inactive: 6.67%
59 | O=C(NCC(=O)N(c1ccccc1)C(C(=O)NCC1CCCO1)c1ccccc1)c1cccs1 (centres undefined) | inactive: 7.42%
60 | CCCSc1ncc(Cl)c(C(=O)N2CCN(c3cccc(Cl)c3)CC2)n1 | inactive: 25.3%
61 | O=C(C1CC(=O)N(c2ccc(F)cc2)C1)N1CCN(c2ccccc2)CC1 (centres undefined) | inactive: 0.0691%
62 | Cc1csc(-c2cnn(-c3ccccc3)c2NC(=O)c2cccc(F)c2)n1 | inactive: 24.7%
63 | CCn1c(CNC(=O)c2ccccc2Br)nnc1SCC(=O)NC1=NCCS1 | inactive: 0.709%
64 | O=C(c1ccc2snnc2c1)N1CCSCC1 | inactive: 14.2%
65 | CCOc1ccc(CCNC(=O)CCc2nc3ccccc3[nH]2)cc1OCC | inactive: -3.66%
66 | CCC(=O)Nc1nc2ccccc2n1CCN1CCOCC1 | inactive: 30.2%

Row | SMILES | growth rescue (activation)
67 | COC(=O)[C@H](CCSC)NC(=O)Nc1cc(OC)cc(OC)c1 | inactive: 2.98%
68 | COc1ccc2c(=O)c3c(=O)n(-c4ccccc4)c(-c4ccco4)nc3oc2c1 | inactive: -12.1%
69 | O=C(O)CCCCCNC(=O)CSc1nnc(-c2ccco2)n1-c1ccccc1 | inactive: 7.04%
70 | O=C(CSc1ccc(Cl)cc1)NN=C1CCCCCC1 | inactive: 8.3%
71 | CCOc1cc(/C=C2\C(=N)N3N=C(S(C)(=O)=O)SC3=NC2=O)ccc1OCCOc1cccc(OC)c1 | inactive: 17.6%
72 | O=C(COc1ccccc1F)NCCc1ccc2c(c1)OCCO2 | inactive: 6.78%
73 | CCOc1cc(NC(=S)NCCCN(C)C)c(OCC)cc1NC(=O)C1CC1 | inactive: 3.93%
74 | CCCCC(CC)CNC(=O)CCCCn1c(=O)[nH]c2ccsc2c1=O (centres undefined) | inactive: 33.7%
75 | N=C1C(c2nc3ccccc3s2)=C(O)CN1c1ccccc1 | inactive: 7.35%
76 | FC(F)(F)c1cc(-c2ccco2)nc(NCc2cccnc2)n1 | inactive: 17.1%
77 | CC(=O)Nc1ccc(NC(=O)c2c(C)nn(-c3ccccc3)c2Cl)cc1C | inactive: -5.27%
78 | CC(=O)N1CSCC1C(=O)O (centres undefined) | inactive: 15.3%
79 | Cc1ccccc1C(=O)NC(CC(C)C)C(=O)NN1C(=O)c2ccccc2C1=O (centres undefined) | inactive: 0.527%
80 | O=C(CN1C(=O)C2C3C=CC(C3)C2C1=O)NCCN1CCCc2ccccc21 (centres undefined) | inactive: -7.49%
81 | COc1cc2c(cc1NC(=O)COCC(=O)O)oc1ccccc12 | inactive: -4.62%
82 | CCN(CC)S(=O)(=O)c1ccc2c(c1)c(=O)c(C(=O)NCCc1ccccc1)cn2C | inactive: 0.0758%
83 | S=C(NC1CCCC1)N1CCN(C/C=C/c2ccccc2)CC1 | inactive: 10.7%
84 | O=C(CN(Cc1ccccc1)C(=O)CCC(=O)Nc1nccs1)NCC1CCCO1 (centres undefined) | inactive: -22.3%
85 | CCCCNC(=O)C1(C)CCN1C(=O)c1cc(-c2cccs2)oc1C (centres undefined) | inactive: 9.13%
86 | O=C(CCc1ccc(S(=O)(=O)NC2CCCCC2)cc1)NCc1ccccn1 | inactive: 0.978%
87 | CC(C)C(C)(C#N)NC(=O)CSc1nc2scc(-c3ccc(F)cc3)c2c(=O)n1Cc1ccccc1 (centres undefined) | inactive: 26.1%
88 | CCCCNC(=S)N=Nc1c(O)n(Cc2ccccc2)c2ccccc12 | inactive: 18.8%

Row | SMILES | growth rescue (activation)
89 | O=C(CCc1nnc(Cc2c[nH]c3ccccc23)o1)NC1CCCC1 | inactive: -9.81%
90 | COc1ccc(CNC(=O)COC(=O)c2ccccc2OCC(=O)Nc2ccc(SC(F)F)cc2)cc1 | inactive: -26%
91 | O=C(O)C1CCN(C(=O)COc2ccc(Br)cc2)CC1 | inactive: 11.8%
92 | COc1ccc(C(CC(=O)N2CCCC2)c2ccc(F)cc2)cc1 (centres undefined) | inactive: 29.8%
93 | CC(C)n1c(O)c(N=NC(=O)Cc2csc(N3CCOCC3)n2)c2ccccc21 | inactive: 12.5%
94 | Cc1cc(C)c(-c2cc(NC(=O)COC(=O)c3ccc(C#N)cc3)n(-c3ccccc3)n2)cc1C | inactive: 13.2%
95 | COc1cc(OC)cc(-c2nc3nc(C)c(CCC(=O)NCC(OC)OC)c(C)n3n2)c1 | inactive: 8.1%
96 | O=C(O)c1ccc2nc(-c3ccccc3)sc2c1 | inactive: 32.6%
97 | CN(CC(=O)NC1CC1)S(=O)(=O)c1ccc(Br)cc1 | inactive: -4.08%
98 | Cc1ccc(S(=O)(=O)NCc2cn3ccsc3n2)c(C)c1 | inactive: 1.69%
99 | O=C(CSc1nc(O)cc(=O)[nH]1)N1CCOCC1 | inactive: -2.78%
100 | Cc1cccc(N2CC(c3nc4ccccc4[nH]3)CC2=O)c1 (centres undefined) | inactive: 1.99%
101 | CCC(C)(C)NC(=O)C(c1ccc(O)cc1)N(Cc1ccco1)C(=O)CCC(=O)Nc1ccccn1 (centres undefined) | inactive: -21.7%
102 | O=C(NC(=S)Nc1cccc(NC(=O)c2ccccc2)c1)c1cccc([N+](=O)[O-])c1 | inactive: 4.31%
103 | O=C(NCC1CCCO1)c1ccc([N+](=O)[O-])s1 (centres undefined) | inactive: 21.3%
104 | O=C(CCN1CCN(C/C=C/c2ccccc2)CC1)Nc1ccccc1F | inactive: 9.83%
105 | CC(=O)NC(C)(c1ccccc1)c1nc(-c2cccc3cccnc23)cs1 (centres undefined) | inactive: 21.4%
106 | COc1ccc(Cl)cc1Nc1ncnc2sc(C)c(S(=O)(=O)N3CCC(C)CC3)c12 | inactive: 3.08%
107 | CC(/C=C/c1ccccc1)=N\Nc1nc(C)cc(C)n1 | inactive: 16.2%
108 | Cc1ccc(-n2c(SCC(=O)NCCN3C(=O)CSC3=O)nnc2-c2ccccc2F)cc1 | inactive: 1.41%
109 | O=C(O)c1ccc(NS(=O)(=O)c2ccc3c(c2)C2C=CCC2C(c2ccccc2F)N3)cc1 (centres undefined) | inactive: 1.4%
